From publication PMC8662641, “Site-Specific Labeling of Endogenous Proteins Using CoLDR Chemistry” (Journal of the American Chemical Society, 2021)
Further values from the same series stand in other lists.

Test system: Mino cells
Assay: Pull-down proteomics in Mino cells
Assay type: cell-based, human
Description: The cells were lysed and “clicked” with biotin-azide, and the samples were incubated at room temperature for 1 h. The samples were then precipitated with methanol–chloroform (1 mL of methanol, 250 μL of chloroform, 750 μL of water), washed with 1 mL of methanol, and air-dried. The samples were solubilized, bound to streptavidin agarose beads in PBS for 3 h at 25 °C. The beads were washed, centrifuged, resuspended in Tris 50 mM pH 8, and transferred to a clean Eppendorf tube. After this, the bound proteins were eluted by boiling with 5% SDS then reduced with DTT, alkylated with iodoacetamide, and digested with trypsin. The samples were run on LC/MS/MS. The detailed procedure is available in the Supplementary Methods Section. […]
Pull-down proteomics experiments
1b or DMSO. The cells were spun down, washed with cold PBS and frozen. Then, each sample was lysed in 200 ul of RIPA for 15 minutes on ice and centrifuged at 20000 g at 4 °C. The protein in the supernatant was quantified using BCA. For each sample, […] of 1.65 mg/ml was prepared.
At this point, 5 ul of 5 mM biotin azide and 9 ul of 100 mM CuSO4:THPTA complex were added.
The click reaction was initiated by the addition of 7.5 ul of 150 mM sodium ascorbate, and the samples are incubated at room temperature for 1 hour. The samples were then precipitated with methanol: chloroform (1 ml methanol, 250 l chloroform, 750 l water), washed with 1 ml of methanol, and air dried. The dry pellet was resuspended in 1.2% SDS in PBS (250 l), sonicated as described before, and heated to 90 °C for 5 minutes. The samples were then diluted to 1.5 ml with PBS, and 50 ul of streptavidin agarose beads, prewashed with 0.2% SDS in PBS, were added, followed by 3 hour incubation at room temperature. Following the incubation, the beads were centrifuged 2 minutes 2000 g, and washed 4 times, with the following buffers (4 ml in each wash):
2% SDS; 0.1% sodium deoxycholate, 1% Triton X-100, 0.5 M NaCl, 1 mM EDTA, 50 mM HEPES pH = 7.5; 0.25 M NaCl, 0.5% IGEPAL, 0.5% sodium deoxycholate, 1 mM EDTA, 10 mM Tris pH = 8.1; 50 mM Tris pH = 7.4, 50 mM NaCl. The beads were then resuspended in Tris 50 mM pH = 8 and transferred to a clean Eppendorf tube.
At this point, the buffer was removed to leave a volume of 100 ul, and 100 ul of Tris 50 mM pH 8 + 10% SDS was added, and the samples were heated to 96 °C for 5 minutes. The samples were then centrifuged and the denatured, eluted proteins were transferred to new tubes. Then, 7.5 ul of 0.1 M DTT was added, and samples were incubated at 65 °C for 45 minutes. After the samples had cooled, 7.5 ul of iodoacetamide (0.2 M) were added, and the samples were incubated in the dark for 40 minutes at room temperature. At this point 1/10 volume of 12% phosphoric acid was added, and the samples were diluted 6-fold with 90% methanol + 50 mM ammonium bicarbonate. The samples were then loaded on s-trap micro columns (Protify) and the columns […]
were washed 3 times with 150 ul of 90% methanol + 50 mM ammonium bicarbonate. Then, 20 ul of 0.05 g/l of trypsin in 50 mM ammonium bicarbonate were added to the columns, and the samples were incubated at 47 °C for 90 minutes. Then 40 ul of 50 mM ammonium bicarbonate was added, followed by centrifugation and addition of 1 ul of 0.5 g/l trypsin to the eluate, which was incubated at 37C overnight. The column itself was then eluted using 40 ul of 0.2% formic acid and 40 ul 0.2% formic acid in 50% acetonitrile into a separate tube, which was kept at 4 °C. The two eluates were then combined and evaporated before running on LC/MS/MS.
Running samples on LC/MS/MS:
ULC/MS grade solvents were used for all chromatographic steps. Each sample was loaded using split-less nano-Ultra Performance Liquid Chromatography (10 kpsi nanoAcquity; Waters, Milford, MA, USA). The mobile phase was: A) H2O + 0.1% formic acid and B) acetonitrile + 0.1% formic acid. Desalting of the samples was performed online using a reversed-phase Symmetry C18 […]

Question: Which “Log2(fold enrichment)” value (ADK_HUMAN, 1b relative to pretreatment by ibrutinib) does the source give for `C#CCCNC(=O)C(=C)CN1CCC[C@@H](n2nc(-c3ccc(Oc4ccccc4)cc3)c3c(N)ncnc32)C1` [1b] here?
Answer: 0.09623

Question: What about the “Log2(fold enrichment)” value (ADK_HUMAN, 1b relative to treatment with DMSO) of the same compound?
Answer: 5.473

Question: And the “Log2(fold enrichment)” value (BLK_HUMAN, 1b relative to pretreatment by ibrutinib)?
Answer: 6.825

Question: What about the “Log2(fold enrichment)” value (BLK_HUMAN, 1b relative to treatment with DMSO) of the same compound?
Answer: 6.253

Question: What about the “Log2(fold enrichment)” value (BTK_HUMAN (protein group with EPH receptors), 1b relative to pretreatment by ibrutinib) of the same compound?
Answer: 9.649

Question: What about the “Log2(fold enrichment)” value (BTK_HUMAN (protein group with EPH receptors), 1b relative to treatment with DMSO) of the same compound?
Answer: 9.407

Question: And the “Log2(fold enrichment)” value (LEG7_HUMAN, 1b relative to pretreatment by ibrutinib)?
Answer: -0.4255

Question: And the “Log2(fold enrichment)” value (LEG7_HUMAN, 1b relative to treatment with DMSO)?
Answer: 0

Question: And the “Log2(fold enrichment)” value (MCAT_HUMAN, 1b relative to pretreatment by ibrutinib)?
Answer: 0.4329

Question: And the “Log2(fold enrichment)” value (MCAT_HUMAN, 1b relative to treatment with DMSO)?
Answer: 7.756
